# From article PMC5226500
# By UniProt entry, the sequences of proteins in these tests, tags left out.
# UniProt P60953: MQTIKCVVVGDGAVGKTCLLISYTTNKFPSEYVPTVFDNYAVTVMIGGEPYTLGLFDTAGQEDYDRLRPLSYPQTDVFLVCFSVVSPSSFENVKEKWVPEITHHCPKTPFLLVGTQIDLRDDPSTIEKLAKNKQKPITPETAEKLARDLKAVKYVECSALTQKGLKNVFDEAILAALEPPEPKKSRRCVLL
# Residue numbers refer to the chain shown, from its start. Names may count otherwise. These are yes or no findings as the source states them, for the method shown. In cells and extracts the contact can be indirect. Some entries that bind do so weakly or less than the wild type. Where a sequence is shown, tags or fusion partners need not be part of it.
# B1: Myc-Mig-6-Δ30 (domain or fragment, UniProt Q9UJM3 31-462)
# chain: KTYWSSRSEFKNNFLNIDPITMAYSLNSSAQERLIPLGHASKSAPMNGHCFAENGPSQKSSLPPLLIPPSENLGPHEEDQVVCGFKKLTVNGVCASTPPLTPIKNSPSLFPCAPLCERGSRPLPPLPISEALSLDDTDCEVEFLTSSDTDFLLEDSTLSDFKYDVPGRRSFRGCGQINYAYFDTPAVSAADLSYVSDQNGGVPDPNPPPPQTHRRLRRSHSGPAGSFNKPAIRISNCCIHRASPNSDEDKPEVPPRVPIPPRPVKPDYRRWSAEVTSSTYSDEDRPPKVPPREPLSPSNSRTPSPKSLPSYLNGVMPPTQSFAPDPKYVSSKALQRQNSEGSASKVPCILPIIENGKKVSSTHYYLLPERPPYLDKYEKFFREAEETNGGAQIQPLPADCGISSATEKPDSKTKMDLGGHVKRKHLSYVVSP
# B2: Myc-Mig-6-Δ10 (domain or fragment, UniProt Q9UJM3 11-462)
# chain: IRVPLKTGFLHNGRAMGNMRKTYWSSRSEFKNNFLNIDPITMAYSLNSSAQERLIPLGHASKSAPMNGHCFAENGPSQKSSLPPLLIPPSENLGPHEEDQVVCGFKKLTVNGVCASTPPLTPIKNSPSLFPCAPLCERGSRPLPPLPISEALSLDDTDCEVEFLTSSDTDFLLEDSTLSDFKYDVPGRRSFRGCGQINYAYFDTPAVSAADLSYVSDQNGGVPDPNPPPPQTHRRLRRSHSGPAGSFNKPAIRISNCCIHRASPNSDEDKPEVPPRVPIPPRPVKPDYRRWSAEVTSSTYSDEDRPPKVPPREPLSPSNSRTPSPKSLPSYLNGVMPPTQSFAPDPKYVSSKALQRQNSEGSASKVPCILPIIENGKKVSSTHYYLLPERPPYLDKYEKFFREAEETNGGAQIQPLPADCGISSATEKPDSKTKMDLGGHVKRKHLSYVVSP
# B3: Myc-Mig-6(M26A/R30A) (protein, UniProt Q9UJM3 1-462)
# chain: MSIAGVAAQEIRVPLKTGFLHNGRAAGNMAKTYWSSRSEFKNNFLNIDPITMAYSLNSSAQERLIPLGHASKSAPMNGHCFAENGPSQKSSLPPLLIPPSENLGPHEEDQVVCGFKKLTVNGVCASTPPLTPIKNSPSLFPCAPLCERGSRPLPPLPISEALSLDDTDCEVEFLTSSDTDFLLEDSTLSDFKYDVPGRRSFRGCGQINYAYFDTPAVSAADLSYVSDQNGGVPDPNPPPPQTHRRLRRSHSGPAGSFNKPAIRISNCCIHRASPNSDEDKPEVPPRVPIPPRPVKPDYRRWSAEVTSSTYSDEDRPPKVPPREPLSPSNSRTPSPKSLPSYLNGVMPPTQSFAPDPKYVSSKALQRQNSEGSASKVPCILPIIENGKKVSSTHYYLLPERPPYLDKYEKFFREAEETNGGAQIQPLPADCGISSATEKPDSKTKMDLGGHVKRKHLSYVVSP
# B4: Myc-Mig-6(4A) [I11A/R12A/M26A/R30A] (protein, UniProt Q9UJM3 1-462)
# chain: B3 chain with I11A, R12A
# B5: Myc-Mig-6-Δ38 (domain or fragment, UniProt Q9UJM3 39-462)
# chain: EFKNNFLNIDPITMAYSLNSSAQERLIPLGHASKSAPMNGHCFAENGPSQKSSLPPLLIPPSENLGPHEEDQVVCGFKKLTVNGVCASTPPLTPIKNSPSLFPCAPLCERGSRPLPPLPISEALSLDDTDCEVEFLTSSDTDFLLEDSTLSDFKYDVPGRRSFRGCGQINYAYFDTPAVSAADLSYVSDQNGGVPDPNPPPPQTHRRLRRSHSGPAGSFNKPAIRISNCCIHRASPNSDEDKPEVPPRVPIPPRPVKPDYRRWSAEVTSSTYSDEDRPPKVPPREPLSPSNSRTPSPKSLPSYLNGVMPPTQSFAPDPKYVSSKALQRQNSEGSASKVPCILPIIENGKKVSSTHYYLLPERPPYLDKYEKFFREAEETNGGAQIQPLPADCGISSATEKPDSKTKMDLGGHVKRKHLSYVVSP
# Target: HA-tagged Cdc42 (UniProt P60953)
# Assay: co-IP; 293T cells co-transfected with HA-Cdc42 and Myc-Mig-6 (wild type or mutant); lysed in EBC150 (150 mM NaCl, 0.5% NP-40, pH 8.0), precleared with mouse IgG-agarose, anti-HA agarose 3 h at 4°C, washed with PBS; blot for Myc or Cdc42
row,binding,Binder
1,no binding,B1
2,binds,B2
3,binds,B3
4,no binding,B4
5,no binding,B5
